# Results published in PubChem BioAssay AID588855 (National Center for Advancing Translational Sciences (NCATS), 2011).
# Out of some 410,000 compounds screened, about 5,000 (1.2%) were called active. Inconclusive results, whose numbers are uncertain, are shown with a selection of clear calls. Calls follow the shape of the dose curve; as a rule, active = well fitted inhibition curve with a large enough effect; inconclusive = small, poorly fitted or top-dose-only effect; inactive = no such curve, though single readings can be large or run the other way. Potencies of inconclusive entries are doubtful fits and often do not repeat.
# Test: qHTS for Inhibitors of TGF-b; also: nearly all actives have a fitted effect of over 65% in size
# Settings: HepG2 CAGA-GFP TGF-b/SMAD3 reporter, GFP fluorescence, 18 h, TGF-beta stimulated, 500 pg/mL final; series mostly up to 46.1 µM
# Summary of the method: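 TGF-beta reporter screen: HEPG2 CAGA-GFP, 1% FBS, 500 pg/mL TGF-beta final, 18 h; per-cell GFP summed per well; curves fitted and categorized by class.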
# Potency is read from the fitted curve at half-maximal effect; tags tell the direction and shape of the fitted curve.
row,Structure (SMILES),Potency
1,Cc1cc(C)n(-c2ccc(C(=O)Nc3ccc(N4CCOCC4)cc3)cc2)n1,"inconclusive: 4.47 µM [inhibitor, partial curve, poor fit]"
2,COc1ccc(CC2(C)OC(c3ccc(Cl)cc3)=NN2C(C)=O)cc1 (configuration not stated),inactive
3,CC(=O)C(=Cc1ccc(Cl)cc1)C(=O)c1ccccc1,"inconclusive: 20 µM [inhibitor, single point]"
4,COC(=O)Oc1ccc(/C=N/NC(=O)CSCc2ccccc2Br)cc1OC,inactive
5,Cc1csc(SCC(=O)Nc2nc(-c3ccccc3)cs2)n1,inactive
6,Cc1ccccc1S(=O)(=O)N1CCN(c2ccc3c(c2)C2CC3CCN2C(=O)OCc2ccccc2)CC1 (configuration not stated),"inconclusive: 11.2 µM [inhibitor, partial curve, poor fit]"
7,CCc1ccc(Nc2ccc(S(=O)(=O)N3CCOCC3)cc2[N+](=O)[O-])cc1,"inconclusive: 35.5 µM [inhibitor, single point]"
8,CCC1CCCCN1S(=O)(=O)c1ccc(NC(=O)c2ccncc2)cc1 (configuration not stated),"inconclusive: 35.5 µM [inhibitor, single point]"
9,C#CCOCCOCCOCCNc1nc(N2CCN(C(=O)CCCCCCCCCCNC(=O)[C@H](CCCCN)n3cc(CCO)nn3)CC2)nc(N2CCN(C(=O)CCCCCCCCCCNC(=O)[C@H](CCCCN)n3cc(CCO)nn3)CC2)n1,"inconclusive: 12.6 µM [inhibitor, partial curve, poor fit]"
10,COc1ccc(NS(=O)(=O)c2cccc(C(=O)N/N=C/c3c(F)c(F)c(F)c(F)c3F)c2)cc1,"inconclusive: 35.5 µM [inhibitor, single point]"
11,O=C(N/N=C/c1cccc2cccnc12)c1ccccc1O,"inconclusive: 1.78 µM [inhibitor, full curve, poor fit]"
12,Cc1noc(C)c1COc1ccc(C(=O)NCC2CCCO2)cc1 (configuration not stated),inactive
13,Cc1cc(N/N=C/c2ccc(Cl)cc2)nc(NCc2ccccc2)n1,"inconclusive: 25.1 µM [inhibitor, single point]"
14,O=C1COc2ccc(C(=O)COC(=O)c3ccccc3[N+](=O)[O-])cc2N1,"inconclusive: 35.5 µM [inhibitor, single point]"
15,Cn1nc(-c2ccccc2F)c2cc(C(=O)N3CCN(c4ccc(F)cc4)CC3)sc21,"inconclusive: 12.6 µM [inhibitor, single point]"
16,COc1ccc(O)c(/C=N/NC(=O)c2cc(=O)[nH]c3ccccc23)c1,"inconclusive: 8.91 µM [inhibitor, partial curve]"
17,Clc1ccc(SCCOCCN2CCCCCC2)cc1,inactive
18,O=C(N/N=C\c1ccc(Cl)cc1)C1=NOC2COC3(CCN(c4ccc([N+](=O)[O-])cc4)CC3)OCC12 (configuration not stated),inactive
19,COCCN(C(=S)Nc1c(C)cc(C)cc1C)C(C)c1cccs1 (configuration not stated),inactive
20,Cc1nc(C(F)(F)F)ccc1C(=O)N1CCC1(C)C(=O)NCc1cccs1 (configuration not stated),inactive
21,Cn1c(=O)n(C/C=C/c2ccccc2)c(=O)c2c1nc1n2CCN1c1ccc(Cl)cc1,inactive

row,Structure (SMILES),Potency
1,Cc1ccc(S(=O)(=O)NC(=O)c2cc(C)n(CCCn3ccnc3)c2C)cc1,"inconclusive: 35.5 µM [inhibitor, partial curve, poor fit]"
2,COc1ccc(CNC(=O)C2CCN(C(=O)c3ccc(-n4ccc5ccccc54)s3)CC2)cc1,"inconclusive: 11.2 µM [inhibitor, partial curve]"
3,COc1ccc(-c2[nH]ncc2N=Nc2ccccc2)cc1,"inconclusive: 35.5 µM [inhibitor, single point]"
4,COc1ccc(NC(=O)/C(C#N)=C/c2ccc(Sc3nncn3C)c([N+](=O)[O-])c2)cc1,"inconclusive: 25.1 µM [inhibitor, single point]"
5,COC(=O)c1ccc(NC(=O)CSc2cn(CC(=O)N3CCCCCC3)c3ccccc23)cc1,"inconclusive: 12.6 µM [inhibitor, partial curve]"
6,CCN1C(=O)c2ccc(C(=O)Nc3cccc(C(=O)O)c3)cc2C1=O,inactive
7,COc1ccc(C2=CC(=O)C[C@H](CN3C(=O)c4ccccc4C3=O)N(C(=O)OC(C)(C)C)O2)cc1,"inconclusive: 4.47 µM [inhibitor, full curve, poor fit]"
8,COc1cc(CNCc2cccc(OC)c2OC)cc(OC)c1,inactive
9,CCc1ccc(CNc2ccc(N3CCN(C(C)=O)CC3)cc2)cc1,"inconclusive: 15.8 µM [inhibitor, partial curve, poor fit]"
10,Cc1c(C2(O)CCCCC2)[nH]c2ccc(C(F)(F)F)cc12,"inconclusive: 17.8 µM [inhibitor, single point]"
11,O=C(COC(=O)c1ccccn1)NC12CC3CC(CC(C3)C1)C2,"inconclusive: 3.98 µM [inhibitor, full curve, poor fit]"
12,O=C1OC(CO)CN1Cc1ccccc1 (configuration not stated),inactive
13,C=CCn1c(SCc2nc3cc(C(=O)OC)ccc3c(=O)[nH]2)nc2sc(CC)cc2c1=O,inactive
14,O=C(COc1ccccc1Cl)OCc1cc(=O)n2nc(C3CC3)sc2n1,inactive
15,Cc1ccc(S(=O)(=O)N(C)C)cc1NC(=O)c1ccc(OC(F)(F)F)cc1,"inconclusive: 22.4 µM [inhibitor, single point]"
16,Cc1ccc(NC(=O)c2cc(S(=O)(=O)N3CCc4ccccc43)cn2C)cc1C,"inconclusive: 12.6 µM [inhibitor, single point]"
17,Cc1nc2sccn2c(=O)c1S(=O)(=O)NCc1ccc(F)cc1,inactive
18,Cc1ccc(Cn2c(CNS(=O)(=O)c3ccc(C(C)(C)C)cc3)nc3cccnc32)cc1,"inconclusive: 20 µM [inhibitor, partial curve, poor fit]"
19,C[C@H](Cc1ccc(O)c(O)c1)[C@@H](C)Cc1ccc(O)c(O)c1,"inconclusive: 3.16 µM [inhibitor, single point]"
20,COCc1cc(C)nc(Nc2ccc(C)cc2C)c1C#N,"inconclusive: 3.98 µM [inhibitor, full curve]"
21,Nc1nc(N)nc(-c2cc([N+](=O)[O-])ccc2O)n1,"inconclusive: 2.24 µM [inhibitor, full curve, poor fit]"
